Results taken from the supplement of paper PMC8728848.
This is one part of the list.

Experiments:
Experiment in all cases: glycan array binding signal (z-score within array); higher = stronger binding
Settings in all cases: glycan notation: IUPAC condensed, linker removed
[1] = target: Fuc(a1-3)GlcNAc
Method in brief: (§1)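 The binding signal is a Z-score computed within each array and averaged over linkers. Arrays of the same protein sequence at different concentrations or buffers were also averaged together. Data originate from 3228 arrays in the Consortium for Functional Glycomics database, kept only where the protein sequence was available.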

[2] = target: Fuc(a1-3)[Gal(b1-4)]Glc6S
Method in brief: as §1

[3] = target: Fuc(a1-3)[Gal(b1-4)]GlcNAc
Method in brief: as §1

[4] = target: Fuc(a1-3)[Gal(b1-4)]GlcNAc(b1-2)Man
Method in brief: as §1

[5] = target: Fuc(a1-3)[Gal(b1-4)]GlcNAc(b1-2)Man(a1-3)[Fuc(a1-3)[Gal(b1-4)]GlcNAc(b1-2)Man(a1-6)]Man(b1-4)GlcNAc(b1-4)GlcNAc
Method in brief: as §1

[6] = target: Fuc(a1-3)[Gal(b1-4)]GlcNAc(b1-2)Man(a1-3)[Fuc(a1-3)[Gal(b1-4)]GlcNAc(b1-2)Man(a1-6)]Man(b1-4)GlcNAc(b1-4)[Fuc(a1-6)]GlcNAc
Method in brief: as §1

[7] = target: Fuc(a1-3)[Gal(b1-4)]GlcNAc(b1-3)Gal(b1-3)[Fuc(a1-4)]GlcNAc
Method in brief: as §1

[8] = target: Fuc(a1-3)[Gal(b1-4)]GlcNAc(b1-3)Gal(b1-4)[Fuc(a1-3)]GlcNAc
Method in brief: as §1

[9] = target: Fuc(a1-3)[Gal(b1-4)]GlcNAc(b1-3)Gal(b1-4)[Fuc(a1-3)]GlcNAc(b1-3)Gal(b1-4)[Fuc(a1-3)]GlcNAc
Method in brief: as §1

[10] = target: Fuc(a1-3)[Gal(b1-4)]GlcNAc(b1-3)GalNAc
Method in brief: as §1

[11] = target: Fuc(a1-3)[Gal(b1-4)]GlcNAc(b1-6)GalNAc
Method in brief: as §1

[12] = target: Fuc(a1-3)[Gal(b1-4)]GlcNAc(b1-6)[Gal(b1-3)GlcNAc(b1-3)]Gal(b1-4)Glc
Method in brief: as §1

[13] = target: Fuc(a1-3)[Gal(b1-4)]GlcNAc6S
Method in brief: as §1

[14] = target: Fuc(a1-3)[Gal3S(b1-4)]Glc
Method in brief: as §1

[15] = target: Fuc(a1-3)[Gal3S(b1-4)]GlcNAc
Method in brief: as §1

[16] = target: Fuc(a1-3)[Gal3S(b1-4)]GlcNAc6S
Method in brief: as §1

[17] = target: Fuc(a1-3)[GalNAc(b1-4)]GlcNAc
Method in brief: as §1

[18] = target: Fuc(a1-3)[GalNAc(b1-4)]GlcNAc6S
Method in brief: as §1

[19] = target: Fuc(a1-4)GlcNAc
Method in brief: as §1

[20] = target: Fuc(b1-3)GlcNAc
Method in brief: as §1

[21] = target: Gal(a1-2)Gal
Method in brief: as §1

[22] = target: Gal(a1-3)Gal
Method in brief: as §1

[23] = target: Gal(a1-3)Gal(b1-3)GlcNAc
Method in brief: as §1

[24] = target: Gal(a1-3)Gal(b1-3)GlcNAc(b1-2)Man
Method in brief: as §1

[25] = target: Gal(a1-3)Gal(b1-3)GlcNAc(b1-2)Man(a1-3)[Gal(a1-3)Gal(b1-3)GlcNAc(b1-2)Man(a1-6)]Man(b1-4)GlcNAc(b1-4)GlcNAc
Method in brief: as §1

[26] = target: Gal(a1-3)Gal(b1-3)GlcNAc(b1-3)GalNAc
Method in brief: as §1

[27] = target: Gal(a1-3)Gal(b1-3)GlcNAc(b1-6)GalNAc
Method in brief: as §1

[28] = target: Gal(a1-3)Gal(b1-3)[Fuc(a1-4)]GlcNAc(b1-2)Man(a1-3)[Gal(a1-3)Gal(b1-3)[Fuc(a1-4)]GlcNAc(b1-2)Man(a1-6)]Man(b1-4)GlcNAc(b1-4)GlcNAc
Method in brief: as §1

[29] = target: Gal(a1-3)Gal(b1-4)Glc
Method in brief: as §1

[30] = target: Gal(a1-3)Gal(b1-4)GlcNAc
Method in brief: as §1

[31] = target: Gal(a1-3)Gal(b1-4)GlcNAc(b1-2)Man
Method in brief: as §1

[32] = target: Gal(a1-3)Gal(b1-4)GlcNAc(b1-2)Man(a1-3)[Gal(a1-3)Gal(b1-4)GlcNAc(b1-2)Man(a1-6)]Man(b1-4)GlcNAc(b1-4)GlcNAc
Method in brief: as §1

[33] = target: Gal(a1-3)Gal(b1-4)GlcNAc(b1-3)GalNAc
Method in brief: as §1

[34] = target: Gal(a1-3)Gal(b1-4)GlcNAc(b1-6)GalNAc
Method in brief: as §1

[35] = target: Gal(a1-3)Gal(b1-4)[Fuc(a1-3)]GlcNAc
Method in brief: as §1

[36] = target: Gal(a1-3)Gal(b1-4)[Fuc(a1-3)]GlcNAc(b1-2)Man(a1-3)[Gal(a1-3)Gal(b1-4)[Fuc(a1-3)]GlcNAc(b1-2)Man(a1-6)]Man(b1-4)GlcNAc(b1-4)GlcNAc
Method in brief: as §1

[37] = target: Gal(a1-3)GalNAc
Method in brief: as §1

[38] = target: Gal(a1-3)[Gal(a1-4)]Gal(b1-4)GlcNAc
Method in brief: as §1

[39] = target: Gal(a1-4)Gal(b1-3)GlcNAc(b1-2)Man(a1-3)[Gal(a1-4)Gal(b1-3)GlcNAc(b1-2)Man(a1-6)]Man(b1-4)GlcNAc(b1-4)GlcNAc
Method in brief: as §1

[40] = target: Gal(a1-4)Gal(b1-4)Glc
Method in brief: as §1

[41] = target: Gal(a1-4)Gal(b1-4)GlcNAc
Method in brief: as §1

[42] = target: Gal(a1-4)Gal(b1-4)GlcNAc(b1-2)Man(a1-3)[Gal(a1-4)Gal(b1-4)GlcNAc(b1-2)Man(a1-6)]Man(b1-4)GlcNAc(b1-4)GlcNAc
Method in brief: as §1

[43] = target: Gal(a1-4)Gal(b1-4)GlcNAc(b1-3)Gal(b1-4)Glc
Method in brief: as §1

[44] = target: Gal(a1-4)GlcNAc
Method in brief: as §1

[45] = target: Gal(a1-6)Glc
Method in brief: as §1

B1: Epa10 (protein)
chain: MNEKIFRYLTLLFLFELARSLPVEDKLNIKKVFEKRAVDFTPFAHYPRPEGCSSPPNSVSVGLHMNLYNYPYLYVKPSTKGMFTNDTNSDADGETDGDSAGGIEGRAGQCWNPEYQDPNFPRFGYKQYGEFGASDNVNGDISWDHNEFTEGCKPVLAALPPGYNYPDEITFSNFTMVLSGYFKPKTSGVYKFELKADDFILFNFGAKNAFECCNREESIDNFGPYVAYAMWPNQADQELEVYLFEDSYYPLRLFYNNRDYHSKFKIGFYPPGQTTITFDFDGYLFMLDDTGNECRDSIRYRTVCDDKVVDDTTYSTRYSTSMVPGGGSDVITIYYIRMKCEEEDCLGQWDPINNVCYSPDDCADDGGYWNGQMCDQSCKLEGGIVNPDTGDCDKSCIESGGFLDENGNCDTTCRDDGGMLVEGQCDYQCKEAGGILVGDHCDTTCVDSGGKLNEDGTCDHSCRDQGGQLDENGECDTSCKDSGGMLIEGECDTSCKDEGGQLDDNNECINHCKDQGGIIDENGNCDTSCKDSGGKLDESGACDTSCRDDGGIIDENGNCNTTCRDDGGIIVGDHCDTSCRDAGGILIEDHCDTTCRDSGGKLNEDGTCDHSCRDQGGQLDENGKCDYSCKNGGGKLDEDGNCDMSCKENGGKLDENGDCDLSCKEDGGKLDGNGDCDYSCKEEGGVIDESGNCNTTCKDSGGQIIDGECNYGCIEVGGVVIDGECDTSCIDSGGILDGDGNCDRSCIESGGVLEDGACNTTCRDSGGQLNVDGTCDTSCRDDGGMLVEGQCDYQCKEAGGILEDGECVFPPTSSSTSETSSTTDQSSLQSDDSSMESSSTPMDSSTIESSSSEIITSESESESVPIASSSSEVMTSESESESIPILTSSSEIPIASSSSEIPVASSSSEIIIPESESESVPVASSSSEIPIASSSSEIPVASSSSEIPVASSSSEIIIPESESESIPIESTSSEAVSSRSESDSSYPTPTPTTTTITTWPNPIQPTTSNSSPIVSSSTETPGIAESSSRISDLESSRRTSILGDDRTRTRTTITSTITEDGQIITITTTVTGFVPEPTGETEGNGSDDENPENPIENNTDENEFLDPEFTDDIPDDPAGPEDNGNGPVNPEQGNDNDPVNLEDSGNNGAVNPEQAPVNDEDNGGNDPVNPEQDNNNGPANPGQDSTNGSGNSDQIDNNPPTPEENAGDGNSNGNDPADPSRRTSILGDERTRASPGGTSQPTGANGNVNGNSPGANVNGGGTGNSNNNNNNNNNNNNGNAPNGGDGSNGDANQGPSRRTSLLGDERTRAGQAAPTGGSSPDNGIAGDTSNNGGAIVSQQVDDGGAGSPRRTSILGDVRSRTTLNGEVLNFEGSGVRRAVAGNLALPLMMVGLVFNL
[1]
  glycan array binding signal (z-score): -0.335
[2]
  glycan array binding signal (z-score): -0.114
[3]
  glycan array binding signal (z-score): -0.256
[4]
  glycan array binding signal (z-score): -0.139
[5]
  glycan array binding signal (z-score): -0.195
[6]
  glycan array binding signal (z-score): -0.206
[7]
  glycan array binding signal (z-score): -0.28
[8]
  glycan array binding signal (z-score): -0.202
[9]
  glycan array binding signal (z-score): -0.193
[10]
  glycan array binding signal (z-score): -0.22
[11]
  glycan array binding signal (z-score): -0.133
[12]
  glycan array binding signal (z-score): -0.228
[13]
  glycan array binding signal (z-score): -0.223
[14]
  glycan array binding signal (z-score): -0.243
[15]
  glycan array binding signal (z-score): -0.257
[16]
  glycan array binding signal (z-score): -0.177
[17]
  glycan array binding signal (z-score): -0.269
[18]
  glycan array binding signal (z-score): -0.288
[19]
  glycan array binding signal (z-score): -0.253
[20]
  glycan array binding signal (z-score): -0.291
[21]
  glycan array binding signal (z-score): -0.244
[22]
  glycan array binding signal (z-score): 0.021
[23]
  glycan array binding signal (z-score): 0.061
[24]
  glycan array binding signal (z-score): 0.532
[25]
  glycan array binding signal (z-score): -0.031
[26]
  glycan array binding signal (z-score): 0.048
[27]
  glycan array binding signal (z-score): 0.287
[28]
  glycan array binding signal (z-score): -0.172
[29]
  glycan array binding signal (z-score): -0.071
[30]
  glycan array binding signal (z-score): 0.324
[31]
  glycan array binding signal (z-score): 0.372
[32]
  glycan array binding signal (z-score): 1.02
[33]
  glycan array binding signal (z-score): 0.152
[34]
  glycan array binding signal (z-score): 0.115
[35]
  glycan array binding signal (z-score): -0.215
[36]
  glycan array binding signal (z-score): 0.134
[37]
  glycan array binding signal (z-score): 0.853
[38]
  glycan array binding signal (z-score): -0.16
[39]
  glycan array binding signal (z-score): 3.35
[40]
  glycan array binding signal (z-score): -0.025
[41]
  glycan array binding signal (z-score): 0.512
[42]
  glycan array binding signal (z-score): 1.46
[43]
  glycan array binding signal (z-score): 1.2
[44]
  glycan array binding signal (z-score): 2.31
[45]
  glycan array binding signal (z-score): 1.41
